Test results taken from the supplement of paper PMC12889115.
Some of the results follow. Cut-off read from the data, not from the text of the source: active = 25% or less and inactive = the rest. Repeats are few or missing, and single values can be far off.

Key:
[1] = test system: Salmonella enterica serovar Typhimurium SL1344; assay: bacterial growth OD600 after 18 h in MHB with 0.5 µg/mL polymyxin B; higher = more bacterial growth (less inhibition); details: 25 µM; polymyxin B 0.5 µg/mL; system: broth
Procedure: (§1)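 Secondary screen of the 553 primary hits at 25 µM. (i) S. Typhimurium SL1344 grown in Mueller-Hinton broth with 0.5 µg/mL polymyxin B, OD600 read after 18 h. (ii) SAFIRE assay: RAW 264.7 macrophages infected with S. Typhimurium sifB::gfp (MOI 30); compound added 2 h post-infection; cells fixed at 18 h; GFP-positive pixel fraction per macrophage imaged by confocal microscopy and expressed as % of DMSO control.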

[2] = test system: Salmonella enterica serovar Typhimurium SL1344; assay: intramacrophage bacterial GFP load (SAFIRE), percent of DMSO control (% of DMSO); higher = more intracellular bacteria (less inhibition); details: 25 µM; system: infected RAW 264.7 macrophages
Procedure: as §1
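Throughout, for bacterial growth OD600 after 18 h in MHB with 0.5 µg/mL polymyxin B: polymyxin B level opens the outer membrane while sparing the inner membrane, with novobiocin wells as reference growth inhibitor.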
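Throughout, for intramacrophage bacterial GFP load (SAFIRE), percent of DMSO control: compounds tested were the hits of an earlier 50 µM broth growth screen of a drug-like diversity library run with polymyxin B.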

SMILES	bacterial growth OD600 [1]	intramacrophage bacterial GFP load [2]
CCC(C)Nc1ccc(-c2nc(CC(C)C)no2)cn1 (centres undefined)	0	inactive: 122
COCCN1C(=O)CC(CC(=O)N2CCC(c3ccccc3F)C2)(c2ccccc2OC)C1=O (centres undefined)	0.338	inactive: 94.5
CSc1ncccc1C(=O)N1CCC(C(Cc2ccccc2)N(C)C(=O)c2ccsc2)CC1 (centres undefined)	0.275	inactive: 52.5
O=C(c1ccccc1)C1CCCN(C(=O)CC2(c3cccc(F)c3)CC(=O)N(C3CCCC3)C2=O)C1 (centres undefined)	0.005	inactive: 52.1
OCCOc1cccc(CN2Cc3ccccc3OC(c3ccccc3F)C2)c1 (centres undefined)	-0.013	inactive: 95.8
O=C(CCC1CCCN(Cc2cccc(O)c2)C1)NCc1ccccc1Cl (centres undefined)	0.141	active: 8.41
Cc1ccc2occ(CN3CCOc4ccc(C(O)CCc5ccccc5)cc4C3)c(=O)c2c1 (centres undefined)	-0.009	inactive: 75.5
CCc1ccc(CN(C)c2nncc(-c3cccc(F)c3)n2)cc1	-0.005	inactive: 140
COc1cc(C(=O)NCCC2=CC[C@H]3C[C@@H]2C3(C)C)ccc1OC1CCN(C(C)=O)CC1	0.003	inactive: 78.3
O=C1N(Cc2cccc(Cl)c2)C[C@@H]2C[C@@H](c3cccc4cnccc34)N3CCC[C@@]123	0.001	inactive: 45.9
Cc1nonc1CN(C)C(=O)C1CCN(c2nc(-c3ccccc3)nc3c2CCC3)CC1	0.001	inactive: 141
Cc1ccc(C(=O)N(Cc2ccc(OCc3ccc4c(c3)OCO4)cc2)CC2CCCO2)s1 (centres undefined)	0.003	inactive: 115
Cn1c(CNc2nncc(-c3cccc(Cl)c3)n2)nc2ccccc21	0.003	inactive: 57.2
CC1CN(Cc2ccc3nsnc3c2)Cc2cc(Cl)ccc2O1 (centres undefined)	0.009	inactive: 134
COc1ccc(C(=O)N2CCCC(C(=O)c3ccc4ccccc4c3)C2)o1 (centres undefined)	0.003	inactive: 101
COc1cc(C(=O)N(Cc2ccncc2)Cc2cccc(OCCc3ccc(F)cc3)c2)cc(OC)c1OC	-0.016	inactive: 62.8
COc1ccc(-c2nn(-c3ccccc3C)cc2CN(CC2CCC(=O)N2)C(C)C)cc1F (centres undefined)	0.008	active: 21.1
COc1cccc(-c2cnc(-c3ccncc3)nc2C2CCN(Cc3cn(C)c4ccccc34)CC2)c1	0.003	active: 0.65
OCC1(Cc2ccccc2F)CCCN(Cc2cnc(-c3ccc(Cl)cc3)nc2)C1 (centres undefined)	0.01	inactive: 36
Cc1cc(C(=O)N(C)C(Cc2ccccc2)C2CCN(C(=O)/C(F)=C/c3ccccc3)CC2)n(C)n1 (centres undefined)	0.003	inactive: 40
O=C(CC1(c2ccc(-c3ccccc3)cc2)CC(=O)N(C2CC2)C1=O)N(CCO)Cc1ccccc1 (centres undefined)	-0.024	inactive: 95.6
Cc1c(C(=O)NCC2OCCc3ccccc32)cnn1-c1ncc2c(n1)-c1ccccc1CCC2 (centres undefined)	0	inactive: 95.6
